# ± gives the standard deviation of the averaged measurements. The list shows a part of the results.
# System: PfAP2-LT AP2 domain (GST-tagged)
# Experiment: gcPBM binding intensity (ln(normalized median fluorescence intensity)); higher = stronger DNA binding
# Procedure, shortened: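 Binding intensity values are the highest Masliner-normalised natural-log median intensity among replicate spots of either probe orientation. The binding step lasted 1 h in 1× PBS with 1% milk, 0.2 mg/ml BSA, 0.5% salmon testes DNA and 0.03% Triton X-100, using GST-tagged P. falciparum DNA-binding domains expressed in E. coli on an Agilent 4 × 180k array of primer-extended double-stranded 36-bp intergenic genomic probes plus negative controls. Alexa488 anti-GST antibody and a 488 nm scan detected bound protein.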
row,Sequence,gcPBM binding intensity (ln)
1,TCGTATATGGATTTTGCACACAATTATAATTTAAAT [CACACA_site868],9.09 ± 0.4
2,TATATATTTTAAAATAGTACATATTATATAACCCAT [XGTACX_site2194],8.71 ± 0.33
3,GTAATTTTTTTCTATACACACATATCTATAATATAT [CACACA_site7284],9.09 ± 0.32
4,TACTTATAATTTCAATGTACATATATATAATATCAT [XGTACX_site2424],8.68 ± 0.44
5,AATTAAATATTATAAACACACATATAGATTATTTTT [CACACA_site6538],8.65 ± 0.43
6,ATTTCTTATTAAATTACACACAAAGTAAATAAATCT [CACACA_site3924],8.65 ± 0.37
7,ATTTTAAATATGGAATGTACTTAAAAAAAATTTCAT [XGTACX_site5058],8.26 ± 0.33
8,TTGTTTTGGATTATCACACATATAATATATACTCAT [CACACA_site4780],8.9 ± 0.33
9,TTTTCCTTTTTTTTTACATGCAGATATAGAAAGGTA [TGCATGCA_site106],8.37 ± 0.4
10,TATAATAATATGGATTGTACATATATATTTAATTAA [XGTACX_site4327],8.46 ± 0.48
11,AAATACATAACTTAAAATTTGTTCATATCTATACAT [TGCATGCA_negctrl_site249],8.73 ± 0.47
12,TCTTTTTTGAACTAGCGTACATGAAAATATTTATAG [XGTACX_site7359],8.54 ± 0.48
13,TTATTACATATAAAGGAAAATAGCATCTAGATTAAA [XGTACX_negctrl_site435],8.49 ± 0.45
14,AAAAAAAAAAAAAAAAAATACATATACATTTGTGCA [CACACA_negctrl_site1431],8.84 ± 0.27
15,TTTTTATTTATATATAAGGAAAATGCGGTATATATT [CACACA_negctrl_site1770],8.53 ± 0.45
16,TAAATCCGTTTGATGGGTACATACATACATACATAT [XGTACX_site8889],8.91 ± 0.37
17,TTTTTATAAGCATAAAGTACAAATATTTTTTAGTTG [XGTACX_site4140],8.24 ± 0.49
18,ATTTATTTTAGTAAAGCACACGTGTAAAATATATCT [CACACA_site4820],8.95 ± 0.42
19,ACAATAAAATATGGCACACATATATATATATATTTA [CACACA_site3],9.22 ± 0.23
20,ACACAAAACAAAAAGGTGCTGTATAAATGGGTGTAT [GTGCAC_site9905],9.44 ± 0.49
21,CATATATAAAAAAACACACACATATTTATATTTATA [CACACA_site6682],9.22 ± 0.38
22,CATATTTCTTACATTTGTACTTAATAAAATTAATCA [XGTACX_site7224],8.59 ± 0.43
23,AAAAAAATTTATAAATATTTTATTAATATATTTACC [GTGCAC_negctrl_site690],8.34 ± 0.49

row,Sequence,gcPBM binding intensity (ln)
1,ACAAAATAAATATGAACACACACATTTATGCCTTTA [CACACA_site8346],9.2 ± 0.29
2,ATAATTATACATATTACACACTCTCTTGATCTTTTT [CACACA_site3853],9.05 ± 0.51
3,TTGTCTGACTAATTTTTTTCTGTTTGTACGTTCTTA [GTGCAC_negctrl_site602],8.95 ± 0.49
4,TTTTTATACAACTTATAATACATCTGAAAATATAAA [XGTACX_negctrl_site36],8.25 ± 0.33
5,TATCACATATTATGATGTACAAGGTTTCTGACTAAT [XGTACX_site2763],8.68 ± 0.52
6,CACATACACATACAAACACACATTATATATATATAT [CACACA_site8460],9.59 ± 0.41
7,CATCCATTATTAATATGTACATATGTATATATATTA [XGTACX_site1318],8.75 ± 0.41
8,GAAAAAAAAAAAAGGGGTACATTTATTTTATCAATA [XGTACX_site8331],8.46 ± 0.34
9,TTTTTTTTTTTTTTTTTTTTTTTCTTTATTTTTTTT [CACACA_negctrl_site703],8.16 ± 0.43
10,AACTTTTTACAAACAGGTACGCATATATATATATAT [XGTACX_site5081],9.745 ± 0.05
11,AAAATTTAAAAATGGACACACACAAAAAATAATACT [CACACA_site7972],9.38 ± 0.37
12,AATAATTATTTGTATAGTACAATATACAAAAGATGA [XGTACX_site4312],8.74 ± 0.52
13,ATATATATATGTGCCAGTACACATGTATACATTATA [XGTACX_site3899],8.99 ± 0.34
14,GATATATATATTCACACACACATGGAAATATATATA [CACACA_site382],9.38 ± 0.25
15,TCGTCACTTTAATATTGTACATATATATATATATAT [XGTACX_site8046],9.41 ± 0.057
16,TATAAATATAGACACACACACACACCGAAGCGTAGC [CACACA_site6180],10 ± 0.14
17,AAAATTAATAAATAAACACACATATTTATATTTATA [CACACA_site7266],8.6 ± 0.46
18,TGTGTAAATATGTATACACACATATCTGATCAATAT [CACACA_site7507],9.06 ± 0.38
19,TATATCTACTTAAAAAGTACGTAAATTATAAGCTAT [XGTACX_site6420],8.53 ± 0.45
20,TATATGTATTTATATACACACATATTCTTTTTACAC [CACACA_site8320],9.11 ± 0.46
21,AATATTTTGAACAACAGTACTCTTTCTTTCTTTCTT [XGTACX_site7212],8.7 ± 0.51
22,TCCTTTTCATCTTGTAGTACGGAAATGTAGCTCCAA [XGTACX_site8563],8.55 ± 0.42
